One block for each binder: values may come before it.
Target: T1, TLK2 (LRF/AAA), kinase active (human, UniProt Q86UE8 1-772, L16A | R19A | F20A)
T1 sequence (looked up): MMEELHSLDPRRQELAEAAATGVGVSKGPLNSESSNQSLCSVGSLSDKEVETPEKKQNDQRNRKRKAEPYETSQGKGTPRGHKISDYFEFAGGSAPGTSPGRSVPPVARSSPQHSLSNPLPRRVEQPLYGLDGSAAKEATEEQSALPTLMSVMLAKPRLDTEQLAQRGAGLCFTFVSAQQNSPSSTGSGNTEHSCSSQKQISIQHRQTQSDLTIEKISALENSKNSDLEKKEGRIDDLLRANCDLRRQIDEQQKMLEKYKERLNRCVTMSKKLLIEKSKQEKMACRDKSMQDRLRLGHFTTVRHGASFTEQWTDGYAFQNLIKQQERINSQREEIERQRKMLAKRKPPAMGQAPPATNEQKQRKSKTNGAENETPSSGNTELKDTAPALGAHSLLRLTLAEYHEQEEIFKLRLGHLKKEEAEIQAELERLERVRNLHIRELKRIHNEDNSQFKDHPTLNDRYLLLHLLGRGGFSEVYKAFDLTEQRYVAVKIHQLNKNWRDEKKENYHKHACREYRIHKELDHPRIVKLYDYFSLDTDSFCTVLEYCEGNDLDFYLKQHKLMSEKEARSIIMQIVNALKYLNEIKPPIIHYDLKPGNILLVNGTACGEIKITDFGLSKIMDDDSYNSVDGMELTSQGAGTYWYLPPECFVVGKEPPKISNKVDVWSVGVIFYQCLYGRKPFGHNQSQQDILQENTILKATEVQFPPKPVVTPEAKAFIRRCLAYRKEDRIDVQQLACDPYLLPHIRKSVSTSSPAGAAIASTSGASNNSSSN
Assay: cell-based or functional assay

- in vitro kinase assay ([γ-32P]ATP): impact of the ASF1a H3 binding interface mutation V94R on phosphorylation by TLK2 (LRF/AAA): < 2 fold
B1: FLAG-tagged ASF1a V94R (natural protein)
chain: not shown

- in vitro kinase assay ([γ-32P]ATP): impact of the ASF1a H3 binding interface mutation D88A on phosphorylation by TLK2 (LRF/AAA): < 2 fold
B2: FLAG-tagged ASF1a D88A (natural protein)
chain: not shown

From publication PMC8826447 (Nature Communications, 2022)
